Screen size: about 310,000 compounds; about 11,000 (3.5%) were called active. The shares of active, inactive and inconclusive entries below differ from those in the screen. The call rests on the fitted dose curve; in most records, active means well fitted inhibition curve with a large enough effect; inconclusive means small, poorly fitted or top-dose-only effect, or effect the other way; inactive means flat fitted curve, though single readings scatter. No potency is given beside an inconclusive call; the fits are too rough.
experiment: VP16 counterscreen qHTS for inhibitors of ROR gamma transcriptional activity; conditions: Drosophila S2 Gal4-VP16 UAS-luciferase, luminescence, 20 h; activity, negative = inhibition: at 53.6 µM (top of the series);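 further: Gal4-VP16 expression switched on by copper sulfate through the metallothionein promoter; nearly all actives have a fitted effect of over 50% in size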
On the % scale 0 is the no-effect control and ±100 the full control effect; potency means the concentration at half of the fitted maximal effect; tags describe the fitted curve by direction and shape.

Row | SMILES | Potency | activity, negative = inhibition
1 | Cc1ccccc1NC1=NCC(c2ccc([N+](=O)[O-])cc2)S1 (stereo unspecified) | active: 22.4 µM | –
2 | CCn1c(=O)n(CC)c2cc(N3CCCC3)c(NC(=O)c3ccc(C)c([N+](=O)[O-])c3)cc21 | – | inactive: 0.621%
3 | COc1ccccc1S(=O)(=O)Cc1ccc(C(=O)N2CCN(c3ccccn3)CC2)o1 | – | inactive: 2.57%
4 | C=CCNC(=O)c1sc(-c2ccccc2)nc1C | inconclusive [activator, full curve, poor fit] | –
5 | CC(C)N1C(=O)/C(=C\c2nc3ccccc3c(=O)[nH]2)c2ccccc21 | inconclusive [inhibitor, single point] | –
6 | Cc1ccc(C2(c3noc(CN4CCC(c5ccncc5)CC4)n3)CCCC2)cc1 | inconclusive [inhibitor, single point] | –
7 | COc1nc(Cc2ccc(Cl)cc2)nc2ccccc12 | – | inactive: -13.3%
8 | CCN(CC)S(=O)(=O)c1cc(NC(=O)C(C)OC(=O)c2[nH]c(C)c(C(C)=O)c2C)ccc1C (stereo unspecified) | – | inactive: -28.9%
9 | CC(C)Oc1cccc(C(=O)NC(=S)Nc2ccc3c4c(cccc24)CC3)c1 | inconclusive [inhibitor, single point] | –
10 | O=C1NC(=Nc2cccc(Cl)c2)SC1Cc1cccc(Cl)c1Cl (stereo unspecified) | inconclusive [inhibitor, single point] | –
11 | CNC(=S)N/N=C/c1cn(Cc2ccc(C)cc2)c2ccccc12 | inconclusive [inhibitor, full curve] | –
12 | COc1ccc(-c2nn(-c3ccccc3)cc2CO)cc1 | inconclusive [inhibitor, single point] | –
13 | O=C(C1=C[C@@H](c2coc3ccccc3c2=O)C[C@@H](OCc2ccc(CO)cc2)O1)N1CCN(Cc2ccc3c(c2)OCO3)CC1 | inconclusive [inhibitor, partial curve] | –
14 | CCCn1c(=O)c(C(=O)NNC(=O)c2cccc([N+](=O)[O-])c2)c(O)c2ccccc21 | inconclusive [inhibitor, partial curve] | –
15 | S=C(NCC1CCCO1)N1CCN(c2ccc(Cl)c(Cl)c2)CC1 (stereo unspecified) | inconclusive [inhibitor, single point] | –
16 | S=C(NCc1ccc(Cl)cc1)Nc1ccc(Cl)cc1Cl | active: 11.2 µM | –
17 | Cc1ccc(NC2=C(Cl)C(=O)OC2OC(=O)c2ccco2)cc1C (stereo unspecified) | inconclusive [inhibitor, single point] | –
18 | COc1ccc2[nH]cc(CCNC(=O)c3ccc4ccccc4n3)c2c1 | – | inactive: -2.5%
19 | CC(C)(C)c1cc(NC(=O)Nc2ccccc2)no1 | inconclusive [activator, partial curve, poor fit] | –
20 | CN(C)c1cccc(C(=O)OCC(=O)N2CCc3ccccc3C2)c1 | – | inactive: -14.3%
21 | N#Cc1ccc(OS(=O)(=O)c2ccc(-c3ccon3)s2)cc1 | inconclusive [inhibitor, single point] | –
22 | Fc1cccc(/C=N/Nc2ccc(Cl)nn2)c1 | inconclusive [inhibitor, full curve] | –
23 | O=C(Cc1ccccc1)N1CCc2ccccc21 | inconclusive [inhibitor, single point] | –
24 | COc1cc(/C=C2\C(=O)NN(c3ccccc3)C2=O)ccc1OCC(N)=O | – | inactive: 16.5%

Row | SMILES | Potency | activity, negative = inhibition
25 | Cc1occc1C(=O)N/N=C/C1=C(N2CCOCC2)C(=C\c2ccc(Cl)cc2)/CC1 | inconclusive [inhibitor, single point] | –
26 | Cc1cc(C)nc(SCc2nnc(SCC#N)n2-c2cccc(Cl)c2)n1 | inconclusive [inhibitor, single point] | –
27 | Cc1ccc(S(=O)(=O)N2CCOC2CNC(=O)C(=O)NCCc2ccc(S(N)(=O)=O)cc2)cc1 (stereo unspecified) | inconclusive [inhibitor, single point] | –
28 | C=CCn1c(-c2ccccc2OCC)n[nH]c1=S | inconclusive [inhibitor, single point] | –
29 | CC(C)(C)OC(=O)N1CCC[C@H]1c1nnc(SC/C=C/c2ccccc2)o1 | – | inactive: -1.39%
30 | Cc1ccc(NC(=S)NCc2ccco2)c(C)c1 | inconclusive [inhibitor, single point] | –
31 | O=C(/C=C/c1ccco1)Nc1ccc(Cl)c(S(=O)(=O)N2CCOCC2)c1 | – | inactive: -86.4%
32 | CC(Oc1ccc2ccc(=O)oc2c1)C(=O)NC1CC(C)(C)NC(C)(C)C1 (stereo unspecified) | – | inactive: -2.28%
33 | CCOc1ccc(C(=O)NC(=S)NCCCN2CCOCC2)cc1 | inconclusive [inhibitor, single point] | –
34 | O=C(O)c1ccc(S(=O)(=O)/N=C2\C=C(Nc3ccccc3F)C(=O)c3ccccc32)cc1 | inconclusive [inhibitor, single point] | –
35 | O=S(=O)(NCCc1csc(-c2cccnc2)n1)c1ccc(F)cc1 | – | inactive: -0.685%
36 | N#CC(C#N)=C1C=CC=CN1/C(=C\c1ccco1)C(=O)c1ccc(-c2ccccc2)cc1 | active: 3.16 µM | –
37 | CCOC(=O)c1c(NC(=O)c2c(C(=O)O)cccc2[N+](=O)[O-])sc(C)c1C | – | inactive: -3.67%
38 | Cc1ccccc1CN(C)CC(=O)NC(C)CCc1ccccc1 (stereo unspecified) | – | inactive: 4.27%
39 | COCCNC(=S)N/N=C(\C)c1ccccc1O | active: 0.447 µM | –
40 | Cc1cc(C(=O)Nn2c(-c3ccc(Br)cc3)nc3ccccc3c2=O)ccc1[N+](=O)[O-] | inconclusive [inhibitor, single point] | –
41 | CC/C(=C\C1CCCCC1)C(NP(=O)(c1ccccc1)c1ccccc1)c1ccccc1 (stereo unspecified) | inconclusive [inhibitor, single point] | –
42 | Cc1cc(C)cc(-n2nnc(C(=O)NCc3ccccc3)c2N)c1 | inconclusive [inhibitor, single point] | –
43 | NC(=O)c1c(Nc2nc3c(F)cccc3s2)sc2c1CCCC2 | inconclusive [inhibitor, single point] | –
44 | COC(=O)CC1(C(=O)OC)Oc2ccc(Br)cc2C(=O)N1c1ccc(Br)cc1Cl (stereo unspecified) | inconclusive [inhibitor, single point] | –
45 | CCC(=O)NC(=S)Nc1ccccc1F | inconclusive [inhibitor, single point] | –
46 | O=C(Nc1ccc(N2CCOCC2)c(Cl)c1)c1ccco1 | inconclusive [inhibitor, full curve, poor fit] | –
47 | CN(C)CCCN(C(=O)c1ccc2c(c1)CCCC2)c1nc2ccc(F)cc2s1 | inconclusive [inhibitor, single point] | –
48 | COc1cc(/C=C(\C#N)C(=O)NC2CCCCC2)ccc1OCc1ccc(C(=O)O)cc1 | inconclusive [activator, single point] | –

Row | SMILES | Potency | activity, negative = inhibition
49 | CCc1ccc(NC(=O)c2cc(C)no2)cc1 | inconclusive [activator, partial curve, poor fit] | –
50 | CCOc1ccccc1/C=N/n1c(COc2ccccc2)n[nH]c1=S | inconclusive [inhibitor, partial curve] | –
51 | O=C(N/N=C/c1cc([N+](=O)[O-])ccc1O)C1CC1 | active: 7.94 µM | –
52 | CCc1cccc(NC(=S)N(CCCN2CCOCC2)C(C)c2cc3cccc(OC)c3o2)c1 (stereo unspecified) | inconclusive [inhibitor, single point] | –
53 | Cc1cc(NC(=O)c2ccoc2C)no1 | inconclusive [activator, partial curve] | –
54 | Cc1ccccc1NC(=O)c1ccccc1O | inconclusive [inhibitor, single point] | –
55 | Cc1ccccc1C(=O)Nc1ccc(C(=O)N/N=C/c2ccc(O)cc2)cc1 | inconclusive [inhibitor, single point] | –
56 | C/C(=N\NC(=O)c1ccccc1)c1ccc(C)c([N+](=O)[O-])c1 | inconclusive [activator, single point] | –
57 | Cc1ccc(Cn2nnc3c(=O)[nH]c(C4CCN(S(=O)(=O)Cc5ccccc5)CC4)nc32)cc1 | inconclusive [inhibitor, partial curve] | –
58 | CCOc1ccc2[nH]c(=O)c(CN(C(=O)N3CCOCC3)C3CC3)cc2c1 | – | inactive: -0.44%
59 | CCOC(=O)c1ccc2c(c1)[nH]c(=S)n2CC | inconclusive [inhibitor, single point] | –
60 | CC1CCc2nc(NC(=O)CSc3nc4ccccc4o3)sc2C1 (stereo unspecified) | inconclusive [inhibitor, single point] | –
61 | O=C(c1cc(-c2ccc(Br)cc2)on1)N1CCCC1 | inconclusive [inhibitor, single point] | –
62 | OC1(c2ccc(Cl)c(C(F)(F)F)c2)CCN(CCCC(c2ccc(F)cc2)c2ccc(F)cc2)CC1 | active: 10 µM | –
63 | Cc1ccc(NC(=O)CCC(=O)N/N=C/c2ccc(O)cc2O)cc1 | – | inactive: -5.16%
64 | c1ccc(CN2CCC3(CCc4ccccc43)CC2)cc1 | – | inactive: 1.48%
65 | Cc1cc(N2CCCC2)ccc1/C=C1\NC(=S)N(C)C1=O | active: 2.51 µM | –
66 | Cc1ccc(Cn2c(N)nc3ccccc32)cc1 | inconclusive [inhibitor, single point] | –
67 | C=CCNC(=O)/C(C#N)=C/c1ccc2c(c1)OCCO2 | inconclusive [activator, single point] | –
68 | CC(=O)Nc1ccc(NC2=C/C(=N/S(=O)(=O)c3cccs3)c3ccccc3C2=O)cc1 | active: 5.01 µM | –
69 | COc1ccc(C2C3=C(CCCC3=O)Nc3ccc4ncccc4c32)cc1OC (stereo unspecified) | – | inactive: 10.5%
70 | O=C(CN1C(=O)c2ccccc2S1(=O)=O)c1ccc(OC(F)F)cc1 | active: 10 µM | –
71 | Cc1ccc(-n2ncc3c(NNC(=O)c4cccs4)ncnc32)cc1 | active: 10 µM | –

From PubChem BioAssay AID2546 (National Center for Advancing Translational Sciences (NCATS), 2010)
